According to PubChem BioAssay AID1963435 (Molecular Pharmacology Branch, DTP, NCI, 2024):
Some entries of the source have several records that differ or are many. The list is limited to them. An entry can have further records. Results that share an entry repeat one measurement (runs, samples, wells, individuals or studies). Signs of the kind (2×) count equal records among those shown.

Tested on: PANC-1 complex spheroid growth, percent test/control
Experiment: Anticancer human tumor PANC-1 cell line growth inhibition [Asc];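 further: spheroids exposed to agents for 7 days; percent viability relative to DMSO vehicle wells taken as 100%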
Conditions: stronger effect = lower value
Procedure: Multicellular complex tumor spheroid response to apoptosis pathway targeting inhibitors Alrizomadlin, Pelcitoclax, and Dasminapant in combination with a variety of drugs and investigational agents in selected tumor cell lines
The MDM2 inhibitor alrizomadlin, the Bcl-2/Bcl-xL inhibitor pelcitoclax, and the IAPs inhibitor dasminapant were evaluated both individually and in combination with standard of care and investigational anticancer small molecules within a complex spheroid model of solid tumors. . Complex spheroids include a stromal component modeled by human endothelial cells (HUVEC) and fibroblasts modeled by human mesenchymal stem cells (MSCs). The concentration ranges selected for each drug and investigational agent were based upon clinically achievable concentrations if the clinical Cmax of the agent was known.
Compounds. The drugs and investigational agents: alrizomadlin (APG-115; NSC831270), pelcitoclax (APG-1252; NSC835773), dasminapant (APG-1387;NSC834197), TAK-243 (NSC785004), copanlisib (NSC809693), olaparib (NSC753686), talazoparib (NSC767125), cobimetinib (NSC 768068), eltanexor (KPT-8602, NSC 794443), abemaciclib (NSC 768073), sotorasib (NSC818433), adagrasib (NSC 831453), MRTX-1133 (NSC 836407), Iadademestat (ORY1001, NSC 806812), and RMC-4630 (NSC839698), were obtained from the NCI Developmental Therapeutics Program Chemical Repository. The FDA-approved anticancer drug set is available from the Developmental Therapeutics Program at https://dtp.cancer.gov/organization/dscb/obtaining/available plates.htm. […] The stock solutions were prepared in dimethyl sulfoxide (DMSO, Sigma-Aldrich, St. Louis, MO, cat. D2650) at 800-fold the tested concentration and stored at -70 degrees C prior to their use. All drugs and investigational agents were tested over a range starting from a high concentration at or near the clinical Cmax and decreasing in half-log increments. If the clinical Cmax for an agent had not been determined, the highest concentration tested was 10 microM. […]

Cc1c(S(C)(=O)=O)c(-c2cc(F)cc(N3CCN(c4ccc(NS(=O)(=O)c5ccc(NC(CCN6CCC(C(=O)OCCCP(=O)(O)O)CC6)CSc6ccccc6)c(S(=O)(=O)C(F)(F)F)c5)cc4)CC3)c2)c(-c2ccc(Cl)cc2)n1C(C)C (stereo not drawn)
viability, T/C (compound alone 0.316 µM): 109, 94.7, 102, 124, 99.6, 107, 108% | viability, T/C (compound alone 1 µM): 109, 101, 107, 130, 104, 119, 102% | viability, T/C (compound alone 10 µM): 173, 174, 153 (2×), 182, 168, 167%
